One experiment relates to HSkMC. The experiment in a line: cytotoxicity call (relative viability < 0.9). The note with it: 10 µM.
The subject of a further experiment is HepG2. In words: cytotoxicity call (relative viability < 0.9). To be noted: 10 µM.
The subject of the next experiment is S. aureus RN4220. The experiment in a line: growth inhibition call (relative growth <= 0.2). The note with it: 50 µM.

The other results are listed elsewhere or left out.

As for `C[C@@H]1CCCCO[C@@H](CN(C)CC2CCCCC2)[C@H](C)CN([C@H](C)CO)C(=O)c2cc(NS(=O)(=O)c3ccc(F)cc3)ccc2O1`, the cytotoxicity call in the experiment with HSkMC and in the experiment with HepG2 was “inactive” each time. Also, the growth inhibition call with S. aureus RN4220 is “inactive”.

As to `C[C@@H]1CN([C@H](C)CO)C(=O)Cc2cc(NC(=O)Nc3ccccc3)ccc2O[C@@H]1CN(C)Cc1ccc(-c2ccccc2)cc1`, the cytotoxicity call with HSkMC and with HepG2 was “active” in each case. Besides, the growth inhibition call with S. aureus RN4220 is “inactive”.

On to `CC(C)NC(=O)Nc1cccc2c1O[C@H](CN(C)C(=O)NC1CCCCC1)[C@H](C)CN([C@H](C)CO)C2=O`, for which the cytotoxicity call in the experiment with HSkMC and with HepG2 was “inactive” throughout. Further, in the experiment with S. aureus RN4220, the growth inhibition call was “inactive”.

Regarding `C[C@H](CO)N1C[C@H](C)[C@@H](CN(C)C(=O)CCN2CCCCC2)Oc2ncc(C#Cc3ccccn3)cc2C1=O`, the cytotoxicity call in the experiment with HSkMC and in the experiment on HepG2 was “inactive” in each case. Also, in the experiment on S. aureus RN4220, the growth inhibition call is “inactive”.

Take `C[C@H]1CN([C@@H](C)CO)C(=O)c2cccc(NC(=O)C3CCCCC3)c2O[C@H]1CN(C)Cc1ccc(Oc2ccccc2)cc1`: the cytotoxicity call with HSkMC and in the experiment on HepG2 was “inactive” each time. In addition, the growth inhibition call with S. aureus RN4220 was “inactive”.

As to `C[C@H]1CN([C@@H](C)CO)C(=O)c2cc(NC(=O)CCCCCC(=O)Nc3ccccc3N)ccc2O[C@@H]1CN(C)C(=O)Nc1ccccc1`, the cytotoxicity call in the experiment with HSkMC and with HepG2 was “inactive” throughout. The growth inhibition call with S. aureus RN4220 is “inactive”.

As to `COC(=O)c1ccc(C(=O)NN)cc1`, the cytotoxicity call in the experiment with HSkMC and with HepG2 was “inactive” each time. For the same molecule, the growth inhibition call in the experiment with S. aureus RN4220 was “inactive”.

With `C[C@H]1CN([C@@H](C)CO)C(=O)c2cccc(NC(=O)c3cnccn3)c2O[C@@H]1CN(C)C(=O)NC1CCCCC1`, the cytotoxicity call in the experiment with HSkMC and with HepG2 was “inactive” each time. Besides, the growth inhibition call with S. aureus RN4220 was “inactive”.

Turning to `O=C(O)c1n[nH]c2c1CCC2`, the cytotoxicity call in the experiment on HSkMC and with HepG2 was “inactive” each time. Also, the growth inhibition call in the experiment with S. aureus RN4220 was “inactive”.

Consider `C[C@H](CO)N1C[C@H](C)[C@H](CN(C)Cc2ccc(C(F)(F)F)cc2)Oc2c(NC(=O)Nc3ccc(C(F)(F)F)cc3)cccc2C1=O`, for which the cytotoxicity call in the experiment on HSkMC (human skeletal muscle cells) and in the experiment with HepG2 was “inactive” in each case. In addition, the growth inhibition call with S. aureus RN4220 was “inactive”.

Source of the values: the antibiotic and cytotoxicity screens of Wong et al. (2023).
